The results in this text go back to paper PMC12040169 (PLOS Biology, 2025).

Molecules are shown by their SMILES. The list shows a part of the results.

The subject of this experiment is T1, C. trachomatis L2/434/Bu expressing GFP (CTL2-GFP).
T1 construct: L2/434/Bu GFP intracellular growth in HeLa cells
On the set-up: species or system HeLa; C. trachomatis total inclusion area by high-content imaging, normalised to DMSO. Particulars: total inclusion area; 28.5 h, 10 µM; inhibitor. In a few lines:
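High-content imaging followed the bulk GFP/resorufin measurement: fixed, Hoechst-stained cells were scored for GFP inclusions and host nuclei per well. Total inclusion area and count served as growth proxies, nuclei number as the viability proxy. MIC calculation matched the bulk assay.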
Turning to `CC(C)Nc1cc(OCc2cccnc2)ncn1` [CBK115883], the “% of control remaining” value is listed as 103.257. Turning to `CC(=O)Nc1nc(NC(C)=O)n2c(-c3ccccc3)nnc2n1` [CBK026649], the “% of control remaining” value is 81.5044. On to `CC(=O)N(C)[C@H]1CC[C@]2(CC1)CNC(=O)c1ccccc1O2` [CBK281682], for which the “% of control remaining” value is 93.8172.

`CC(=O)c1ccc(NC(=O)NC[C@H]2C[C@@H]3CC[N@]2C[C@@H]3CN2CCN(C)CC2)cc1` [CBK288768]: the “% of control remaining” value was 72.4405.

Regarding `COC(=O)c1ccccc1NC(=O)NCc1cc(C)n(C)n1` [CBK266887C], the “% of control remaining” value came to 81.6156. To `CC(O)CNc1nccnc1-c1ccccc1` (stereo not shown) [CBK089257] belongs 75.0363; to `C/C(=N\NC(=O)c1ccccc1O)c1ccc(NC(=O)c2ccc(C)cc2)cc1` [CBK261251], 106.846.

As for `Cn1ccnc1C1(O)CC2CCC(C1)N2C(=O)c1cccc(Cl)c1` (stereo not shown) [CBK284091], the “% of control remaining” value is listed as 74.837. Turning to `CC(=O)N1CCCc2cc(C(O)CN3CCCC(C)(C)C3)ccc21` (stereo not shown) [CBK282143], the “% of control remaining” value is on record as 90.2453. `C=CCNC(CC(=O)Nc1ccc(C)c(Cl)c1)C(=O)O` (stereo not shown) [CBK266892]: the “% of control remaining” value came to 92.9906. On to `CC(C)[C@@]1(C)SC(N[C@H]2C[C@H]3C[C@@H]2C[C@@H]3O)=NC1=O` [CBK138400], for which the “% of control remaining” value is 95.3744. `CC1(c2ccccc2)CC(=O)N(CCC(=O)O)C1=O` (stereo not shown) [CBK287091]: the “% of control remaining” value came out at 96.63. Consider `O=C1CCCN1CCCNc1nccnc1-c1cccnc1` [CBK089246], for which the “% of control remaining” value is reported as 101.022. The figure for `CC(Cn1cccn1)NCc1cn(C)c2cc(F)ccc12` (stereo not shown) [CBK282220] is 104.382; for `Cc1cccc(C)c1N1CCN(CC(O)COc2ccc3c(C)cc(=O)oc3c2)CC1` (stereo not shown) [CBK270084] it is 94.9669. Take `COc1cc(OC)c(NC(=O)CSc2ccccn2)cc1Cl` [CBK267303]: the “% of control remaining” value was 76.1429.

On to `Cc1c(C)n(Cc2ccco2)c2ncnc(NC(C)C(=O)O)c12` (stereo not shown) [CBK307561], for which the “% of control remaining” value worked out at 78.5275.

On to `COc1ccc(Nc2cc(Cl)ccc2C(=O)N2CCN(c3ncccn3)CC2)cn1` [CBK107334], for which the “% of control remaining” value is on record as 94.1333.

Turning to `CCCC/C=C/c1nccnc1N(C)Cc1ccccc1` [CBK037412], the “% of control remaining” value came out at 115.682. As for `CSc1nc(C(=O)NC2CCCN(c3ncccn3)C2)cs1` (stereo not shown) [CBK307198], the “% of control remaining” value is reported as 75.0272. For `CC(C)N1CCc2c(sc3nc(SCc4ccc(Cl)cc4)n(Cc4ccccc4)c(=O)c23)C1` [CBK263745], the “% of control remaining” value is given as 75.1311.

Take `Cc1ccc2c(CC(=O)N3CCC(C(=O)O)CC3)coc2c1` [CBK286711]: the “% of control remaining” value amounted to 92.6645. The figure for `Cc1nnc(SCc2cc(=O)[nH]c(N3CCN(Cc4ccccc4)CC3)n2)s1` [CBK268837] is 111.486. As for `Fc1ccc(-c2ccc(CNCc3ccncc3)o2)cc1` [CBK270158C], the “% of control remaining” value worked out at 99.2189. To `COC(=O)C(Nc1cccc(Cl)c1)(c1cc(OC)c(O)c(OC)c1)C(F)(F)F` (stereo not shown) [CBK009591] belongs 96.6364. To `N#CCCN(Cc1cccnc1)C(=O)Cc1noc2ccccc12` [CBK304001] belongs 44.1842; to `O=C(Nc1ccc2ncccc2c1)c1ccoc1` [CBK159823], 100.57. As to `Cn1cc([C@H]2C[C@@H](O)[C@@H](CO)O2)c(=O)n(C)c1=O` [CBK201272], the “% of control remaining” value is on record as 122.998. Turning to `FC(F)(F)c1ccc(CN2CCCC3(C2)NCCc2c3[nH]c3ccccc23)cc1` (stereo not shown) [CBK040095], the “% of control remaining” value amounted to 82.0432. Regarding `CCOC(=O)c1c(C)n(-c2ccccc2)c2ccc(O)c(CN(C)C)c12` [CBK261593C], the “% of control remaining” value came out at 58.1395. For `COc1ccc(C(C)C)cc1-c1cc2ncccc2nc1N` [CBK081202], the “% of control remaining” value turned out to be 100.713. For the molecule `O=C(c1ccc(CO)o1)N1CCn2cc(C(F)(F)F)nc2C1` [CBK283914], the “% of control remaining” value is listed as 86.8015. As to `Cc1cc(=O)nc(N/C(N)=N/c2cccc([N+](=O)[O-])c2)[nH]1` [CBK264857], the “% of control remaining” value turned out to be 82.1445. Consider `O=C(NCc1ccc2c(c1)OCO2)N1CCCC(CO)C1` (stereo not shown) [CBK156034], for which the “% of control remaining” value is reported as 120.036.

`Cc1csc(N2CCC(Nc3cc(CO)ccc3Cl)CC2)n1` [CBK306440]: the “% of control remaining” value worked out at 108.233. For `COCCNc1nccnc1-c1cccc(C(=O)N2CCN(C)CC2)c1` [CBK036864], the “% of control remaining” value was 121.725. On to `CSCCCNC(=O)N1CCN(c2cc(C(F)(F)F)ccn2)CC1` [CBK156433], for which the “% of control remaining” value was determined as 82.262. Consider `COc1ccc(-c2nc(NC(=O)C3CC3)cnc2-c2cccc(C(F)(F)F)c2)cc1` [CBK036852], for which the “% of control remaining” value is on record as 126.569.

Take `Cc1nc2cc(C(=O)O)ccc2[nH]1` [CBK220035]: the “% of control remaining” value was determined as 89.3214. `CCOC(=O)Cn1c(CN2CCC(Cc3ccccc3)CC2)nc2c1c(=O)n(C)c(=O)n2C` [CBK269454]: the “% of control remaining” value is on record as 110.612. As for `Oc1ccc(Nc2nc3nonc3nc2Nc2ccccc2)cc1` [CBK263551], the “% of control remaining” value is reported as 66.8035. As for `c1ccc(CCN2CCCN(c3ccnc(OCCN4CCOCC4)n3)CC2)cc1` [CBK083810], the “% of control remaining” value stood at 89.1524. For `COC(=O)[C@@H]1Cc2ncn(C(C)C)c2CN1C(=O)c1ccc(F)cc1` [CBK288990], the “% of control remaining” value came to 113.12. The figure for `CCc1nccn1CCCNC(=O)Nc1cc(-c2cccnc2)nn1C` [CBK306657] is 92.0369; for `CC(=O)Nc1cccc(-c2cc(N3CCN(CC(=O)N(C)c4ccccc4)CC3)ncn2)c1` [CBK091134] it is 163.024. As to `O=C(O)CSc1c[nH]c2ccccc12` [CBK026377], the “% of control remaining” value is reported as 84.7488.

With `CC(c1cccc(F)c1)n1cc(C(=O)NCCc2ccco2)nn1` (stereo not shown) [CBK283582], the “% of control remaining” value was found to be 96.9797. For `CC(NC(=O)Cc1cccc(F)c1)c1nnc2n1CCCCC2` (stereo not shown) [CBK305975], the “% of control remaining” value came to 46.3967. Consider `COCCn1c(CO)nnc1[C@H]1C[C@@H](NC(=O)c2ncc(F)cc2F)C1` [CBK307458], for which the “% of control remaining” value came out at 42.3609.

In the case of `Cc1cc(C)n(CCNCc2cc(-c3ccccc3)c[nH]c2=O)n1` [CBK284770], the “% of control remaining” value came to 41.4967. Take `O=C(CCCn1ccnc1)Nc1ccc(N2CCCCC2)c(F)c1` [CBK281385]: the “% of control remaining” value was found to be 80.8776.

Take `Cc1cn([C@H]2C[C@@H](O)[C@@H](CN)O2)c(=O)[nH]c1=O` [CBK201315]: the “% of control remaining” value came out at 100.392.
